Some of the results follow. The energies were worked out here from pooled read counts, against the library average; single values are noisy.
Target: T1, Pho4 (S. cerevisiae) (UniProt P07270)
T1 sequence: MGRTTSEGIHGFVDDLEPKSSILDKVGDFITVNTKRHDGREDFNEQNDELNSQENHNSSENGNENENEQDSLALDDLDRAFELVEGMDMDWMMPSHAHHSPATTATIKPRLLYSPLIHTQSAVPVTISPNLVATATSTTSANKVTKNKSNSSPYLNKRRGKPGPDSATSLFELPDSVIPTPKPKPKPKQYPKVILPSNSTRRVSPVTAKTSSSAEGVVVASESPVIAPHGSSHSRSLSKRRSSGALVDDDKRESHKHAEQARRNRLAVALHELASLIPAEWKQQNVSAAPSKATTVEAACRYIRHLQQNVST
Assay: relative binding free energy (BET-seq); higher = weaker binding
Details: reference: library average

Relative binding free energy, 0.17 kcal/mol:
GATGTCACGTGTGAGG
CAGAGCACGTGGAAGG
CAGGTCACGTGTTGCT
TTTTGCACGTGTAGAG
GTTCTCACGTGGTTGC

Relative binding free energy, -0.26 kcal/mol:
GTGAGCACGTGCGCGG
TAGCGCACGTGGGTGT

Relative binding free energy, 0.23 kcal/mol:
TCCTTCACGTGGTGGG
AGAGTCACGTGTTTAT
TGGCGCACGTGAGGTT
AATGTCACGTGTGAAA
TAGATCACGTGTAATG
ATTTTCACGTGTGGCA

Relative binding free energy, 0.04 kcal/mol:
TGGCCCACGTGTTGTT
GTCGGCACGTGTGGTC
ATTCGCACGTGTGGCG
GGATACACGTGTTGGG

Relative binding free energy, 0.34 kcal/mol:
GTTTTCACGTGCAATG
TGAATCACGTGTAAGT
AGTTTCACGTGGACTG

Relative binding free energy, 0.25 kcal/mol:
CATTTCACGTGGATAG
TTGTTCACGTGAACAT
TGTCTCACGTGATTTA
TTTAACACGTGACGTT

Relative binding free energy, 0.03 kcal/mol:
GTAGACACGTGGTCTT
TTTAGCACGTGTGGGT
AGGGGCACGTGATATA
AGGTACACGTGGCCGT
GGTGGCACGTGATGCT

Relative binding free energy, -0.05 kcal/mol:
TAAGCCACGTGTGGTG
AAAGTCACGTGGGTTG
ATTCGCACGTGTGGTC
GTATACACGTGTTGCT
TCGGACACGTGTTGGT
TAAGTCACGTGGGGTC
ATGGACACGTGCGCGT
TCGTACACGTGGGGGA

Relative binding free energy, 0.27 kcal/mol:
GTAATCACGTGATGTG
AGATTCACGTGTGACG
GAATTCACGTGGGAGG
TGGTTCACGTGGCGAT

Relative binding free energy, 0.09 kcal/mol:
TGAGTCACGTGTTGAT
GGGTCCACGTGTGTGT

Relative binding free energy, 0.15 kcal/mol:
GGTTCCACGTGTAGGT
TAGATCACGTGTTGGA
GTGTACACGTGATGTA
ATTGACACGTGATAAT
TAGGTCACGTGGTTTG
TGTTTCACGTGGCGCT

Relative binding free energy, -0.02 kcal/mol:
GTTAACACGTGGATAG
TGAATCACGTGGGATG
TCGGGCACGTGTCGTT
CGGGACACGTGGCTGG
GGTGTCACGTGGAGCG
TTCAACACGTGGTCGG
TGTGGCACGTGAAACG
CGTGGCACGTGCAGTT

Relative binding free energy, -0.09 kcal/mol:
GGCAACACGTGTTGTG
TGGGACACGTGCGTGT
TGCCGCACGTGTAGGT
ACAGGCACGTGTTCGG
GTTGCCACGTGCTTTG
TGCTGCACGTGCGGGC
TGCGGCACGTGTGTAG
TTATCCACGTGGTTGG

Relative binding free energy, 0.24 kcal/mol:
GGTTTCACGTGCCTGT
CGGTTCACGTGTCGAG
AATTTCACGTGGGAGT

Relative binding free energy, 0.44 kcal/mol:
TGCGACACGTGAGAGT
GATCTCACGTGAGTGT

Relative binding free energy, -0.19 kcal/mol:
ATGAGCACGTGCGCGG

Relative binding free energy, 0.3 kcal/mol:
TGGTTCACGTGCAGGA
GTATTCACGTGTGAAT
GTTCTCACGTGATTTA

Relative binding free energy, -0.15 kcal/mol:
AGAAGCACGTGGTGAT
ATTGACACGTGCTTTT

Relative binding free energy, -0.13 kcal/mol:
GCTGGCACGTGGGCGC

Relative binding free energy, 0.16 kcal/mol:
TTAAGCACGTGAGGCG
TTTTTCACGTGCACGT
AGAATCACGTGTTTGG

Relative binding free energy, -0.18 kcal/mol:
TGGAGCACGTGTTGAT
CTTGGCACGTGGGGTT

Relative binding free energy, 0.11 kcal/mol:
GAAGTCACGTGTGTAG
TTGTGCACGTGGAGTT
TGTGGCACGTGAGGCC
GGCGACACGTGTTTGG
GGGGACACGTGTGATT

Relative binding free energy, 0.21 kcal/mol:
TTGTTCACGTGGAGTG

Relative binding free energy, -0.01 kcal/mol:
AACTGCACGTGGGGCG
GAGTACACGTGGGAGG
CTGAGCACGTGGAGGT
CATTGCACGTGTATGG
TTTTGCACGTGCGGTG

Relative binding free energy, -0.08 kcal/mol:
ATTGGCACGTGGTGGA
TCTGCCACGTGTTTGG
GTATGCACGTGGTAAT
TAAGACACGTGGTGGC
TAGTACACGTGGGGTA
TGAGGCACGTGCAATG
CGACGCACGTGGTGGT
TGATACACGTGGTTTA
TCGGACACGTGGTGGG

Relative binding free energy, 0.19 kcal/mol:
TGTTACACGTGAGGCA
GTGTGCACGTGGAAGT
TTAGACACGTGAGATG
TGAGTCACGTGACGGG
GGGGTCACGTGATACG

Relative binding free energy, 0.32 kcal/mol:
TCTTGCACGTGAGTTC
TGAATCACGTGGAAAG
AGTTTCACGTGTGCAA
AGAGTCACGTGAAAGG

Relative binding free energy, -0.04 kcal/mol:
TTGGGCACGTGATAAT
TGATACACGTGTATGT
TCTGTCACGTGGGTCA
AAGGTCACGTGGGCAA

Relative binding free energy, 0.38 kcal/mol:
GAGGTCACGTGATTCG
CAGATCACGTGCAGGG
GCTGTCACGTGTCGAG

Relative binding free energy, 0.36 kcal/mol:
GGGATCACGTGGAATT
TTGCTCACGTGAGTGG

Relative binding free energy, 0.08 kcal/mol:
TGTCTCACGTGGCAGG
TAAGACACGTGTGATG
CTGGCCACGTGTGAGT
GGGTGCACGTGTACTT

Relative binding free energy, 0.05 kcal/mol:
TGCTACACGTGGTTGT
TGAGTCACGTGGTTCA
GGTAACACGTGGAGAG
TAATCCACGTGTGGGT

Relative binding free energy, 0.14 kcal/mol:
CGTTTCACGTGCGTTA
CGCGGCACGTGAGGTA
ATGCTCACGTGTGGAT
GGGATCACGTGGTGTT
ATGATCACGTGCAGTT
TGAGTCACGTGCGAAT
GTGCACACGTGAGGTT

Relative binding free energy, 0.41 kcal/mol:
GAGCTCACGTGAGGGT

Relative binding free energy, 0.2 kcal/mol:
AGAGTCACGTGTCAGT
GTGTCCACGTGAGGGC
GGGGTCACGTGGCAGA

Relative binding free energy, -0.07 kcal/mol:
TGGGACACGTGGTCGA
TGGGGCACGTGTGTTT
TGGGGCACGTGTGTTG
TGTGACACGTGCGTGG

Relative binding free energy, 0.26 kcal/mol:
GGGGTCACGTGTATGT
AGGATCACGTGTTAAG

Relative binding free energy, -0.06 kcal/mol:
GAGAGCACGTGGTCTT
TCTGACACGTGGGGGT
GAGAACACGTGGGGTA

Relative binding free energy, 0.07 kcal/mol:
TCTGACACGTGTAGGG
ATGTGCACGTGGATCT
GGTGGCACGTGAGCGC
TTGCACACGTGTATTA

Relative binding free energy, 0.12 kcal/mol:
TGCACCACGTGAGGGT
AAGGACACGTGATAGT
GATTGCACGTGGAATG
GGTTGCACGTGTGGTA
CGGGCCACGTGTGGTT

Relative binding free energy, 0.18 kcal/mol:
ACTATCACGTGTGGTA
TTGTTCACGTGTGTCC
CCTGGCACGTGAGTTT
GGGTTCACGTGCGGTA
GGTCTCACGTGCTGTG
TAGATCACGTGATGAT

Relative binding free energy, 0.42 kcal/mol:
CTTTACACGTGAGTTA
ATTTTCACGTGTCAGC

Relative binding free energy, -0.14 kcal/mol:
TGGGTCACGTGCATGC
TTGTGCACGTGGCAGG
GTGCGCACGTGTAAGG

Relative binding free energy, -0.16 kcal/mol:
TACGGCACGTGGGAGC
TTGGCCACGTGGGTGC
TGTGACACGTGGTCTT

Relative binding free energy, -0.29 kcal/mol:
AGCGCCACGTGGGTGT

Relative binding free energy, 0.29 kcal/mol:
ATTTTCACGTGTGCTG
TTGTACACGTGAATTG
GTGATCACGTGGAAAT
TTAGTCACGTGAATCG
TATTTCACGTGGTATA
GAGCTCACGTGGATGG
TTTTTCACGTGGAAGC
GTCTTCACGTGGTGCA

Relative binding free energy, 0.33 kcal/mol:
ATGGTCACGTGAGGTT
GCTGACACGTGAGTGT
CATGTCACGTGTTTCA

Relative binding free energy, -0.11 kcal/mol:
TTGGGCACGTGGCTCG
CAGGGCACGTGTTGAA

Relative binding free energy, 0 kcal/mol:
CATTACACGTGGTGGG
ATTAGCACGTGGATGC

Relative binding free energy, 0.31 kcal/mol:
CTTTACACGTGAGGCT

Relative binding free energy, 0.13 kcal/mol:
GCTTACACGTGGTTGG
TTTTCCACGTGTTGGG

Relative binding free energy, 0.28 kcal/mol:
TTATTCACGTGATTGT
GTGGTCACGTGTTAGG
GTGTACACGTGATTCG
GTAATCACGTGAGTGG
TCGTACACGTGAGGTT
AAGTTCACGTGAGGTG

Relative binding free energy, -0.03 kcal/mol:
AGTTGCACGTGGTATA
ACATGCACGTGTTTAG
ATGGTCACGTGGGTAA
AAGCGCACGTGGGAGA
TAGGTCACGTGGGTAT
TTCTGCACGTGGTTGC
TGGGACACGTGGGTTT

Relative binding free energy, -0.24 kcal/mol:
AGTGCCACGTGGGTGG

Relative binding free energy, 0.02 kcal/mol:
TGGTCCACGTGTTGAT

Relative binding free energy, 0.22 kcal/mol:
CTTTTCACGTGCGGGT

Relative binding free energy, -0.21 kcal/mol:
ATGAGCACGTGTAGTA

Relative binding free energy, 0.1 kcal/mol:
AGTATCACGTGTATGG
AATTACACGTGGTGAT
AATTTCACGTGGGGCT
CGTTGCACGTGAGCTG

Relative binding free energy, 0.01 kcal/mol:
TATAACACGTGTGAGT
GGTAGCACGTGGATAG
GCATGCACGTGTTTTA
TGAGGCACGTGATTCT

Relative binding free energy, -0.1 kcal/mol:
TACGGCACGTGGTGCA
AGGGCCACGTGTTTTG

Relative binding free energy, 0.06 kcal/mol:
GGATCCACGTGTGTTG
ATTTGCACGTGTAATG

Relative binding free energy, 0.35 kcal/mol:
CTGGTCACGTGAGGGT
TTCTTCACGTGTATGG
GGAAACACGTGAGTTA

Relative binding free energy, -0.36 kcal/mol:
CGATGCACGTGGGGGT

Relative binding free energy, -0.2 kcal/mol:
TAAAGCACGTGTGTTG
TGGGACACGTGGGGTA

Relative binding free energy, 0.4 kcal/mol:
GATTTCACGTGGTATG
GTTATCACGTGAGTGG

Relative binding free energy, -0.12 kcal/mol:
AAGGGCACGTGTTTAT
CCTGGCACGTGGTTTG
AATAGCACGTGGCTGG

— the BET-seq Pho4 binding data (Le et al. 2018)
